“And” between values parts separate entries of the source, which are not always exact repeats. Identical values can stand only once. Screen size: about 420,000 compounds; about 64,000 (15%) were called active. Inconclusive results, whose numbers are uncertain, are shown with a selection of clear calls. The call rests on the fitted dose curve; in most records, active means well fitted inhibition curve with a large enough effect; inconclusive means small, poorly fitted or top-dose-only effect; inactive means flat fitted curve, though single readings scatter. No potency is given beside an inconclusive call; the fits are too rough.
Assay: qHTS for Inhibitors of human tyrosyl-DNA phosphodiesterase 1 (TDP1): qHTS in cells in absence of CPT; further: nearly all actives have a fitted effect of over 55% in size
Settings: DT40 Tdp1-/- hTDP1 cells, no CPT, ATP luminescence, 48 h; activity change, negative = growth inhibition: at 46.2 µM (top of the series) unless noted
How it was run: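 Camptothecin absent (DMSO only). Human TDP1-complemented DT40 knockout cells, 400 cells/well, 37 °C for minimum 48 hr; ATP measured via CellTiter-Glo, 30 min dark incubation, luminescence.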
On the % scale 0 is the no-effect control and ±100 the full control effect; potency means the concentration at half of the fitted maximal effect; tags describe the fitted curve by direction and shape.

Structure (SMILES) | Potency | activity change, negative = growth inhibition
COc1ccc(-c2cnnc(N/N=C/c3ccc(OC)c(OC)c3)n2)cc1 | inconclusive [inhibitor, partial curve, poor fit] | 
CN(Cc1ccccc1)c1ccc(C(CC(N)=O)NC(=O)Cc2ccc(Br)cc2)cc1[N+](=O)[O-] (configuration not stated) | inconclusive [inhibitor, single point] | 
CC(OC(=O)C1CSC2(c3ccc(F)cc3)CCC(=O)N12)C(=O)NC(N)=O (configuration not stated) | inactive | 
COc1ccccc1NC(=O)N(CCN1CCCC1)Cc1cc2cc(C)ccc2[nH]c1=O | inconclusive [inhibitor, partial curve, poor fit] | 
O=C(O)c1cccnc1C(=O)c1ccccc1 | inactive | 
O=S(=O)(NCC(c1ccco1)N1CCOCC1)c1ccc(Cl)cc1 (configuration not stated) | inconclusive [inhibitor, partial curve] | 
COc1ccc(CC(=O)NCCc2ccc3c(c2)OCO3)cc1OC | inconclusive [inhibitor, single point] | 
COc1ccc(NC(=O)COc2ccccc2C(=O)Nc2ccccc2)cc1 | inconclusive [inhibitor, single point] | 
COc1ccc(CCN(C)CCCN2CC(c3ccccc3)CC2=O)cc1OC (configuration not stated) | inactive | 
Cc1ccc(NC(=O)NC(=O)CSc2nnc(-c3ccc(OC(F)F)cc3)n2N)c(C)c1 | inactive | 
O=C(CSc1nc2ccccc2c(=O)n1CCCN1CCOCC1)NC12CC3CC(CC(C3)C1)C2 | inconclusive [inhibitor, single point] | 
c1ccc(CCN(Cc2ccccc2)C2CCN(C3CCCC3)CC2)cc1 | inactive | 
Cc1ccc(C)c(Cn2c3ccccc3c3cnn(CC(=O)NCCN4CCOCC4)c(=O)c32)c1 | active: 18.4 µM | 
CCOc1cc(C(=O)Nc2ccc(-c3nc4cc(Cl)ccc4o3)cc2)cc(OCC)c1OCC | inconclusive [inhibitor, partial curve] | 
O=C(Nc1ccccc1)N1CCN(Cc2ccc(Cl)cc2)CC1 | inconclusive [inhibitor, single point] | 
CCC(C)Nc1nc(-c2ccc3c(c2)NC(=O)CO3)cs1 (configuration not stated) | inconclusive [inhibitor, single point] | 
Cc1ccc(S(=O)(=O)N2C[C@H]3[C@H]4C(=O)N(Cc5ccccc5)C(=O)[C@H]4CC(=O)[C@H]3[C@@H]2c2ccccc2)cc1 | inconclusive [inhibitor, single point] | 
CCn1nc(C)cc1C(=O)NCC1CCC2(CCN(Cc3ccccc3F)CC2)O1 (configuration not stated) | inconclusive [inhibitor, single point] | 
CCOc1cc2[nH]c(=S)n(Cc3ccc(C)o3)c(=O)c2cc1OCC | inactive | 
CC1CN(C(=S)Nc2ccccc2)C(C)CN1C=O (configuration not stated) | inactive | 
CCN(CC)S(=O)(=O)c1cc(C(=O)OC(C)C(=O)NCc2ccco2)ccc1C (configuration not stated) | inconclusive [inhibitor, single point] | 
O=C(C(=O)N1CCC(Cc2ccccc2)CC1)c1ccccc1Br | inconclusive [inhibitor, single point] | 
Cc1ccccc1CN1C[C@@H]2C[C@@H](c3cnc(N4CCOCC4)s3)N3CCC[C@@]23C1=O | inactive | 

Structure (SMILES) | Potency | activity change, negative = growth inhibition
CCOC(=O)CC(NS(=O)(=O)c1ccc2[nH]c(=O)sc2c1)c1ccc(C)cc1 (configuration not stated) | inactive | 
CC(=O)c1ccc(OC(C)C)c(CC(C(N)=O)C(N)=O)c1 | inactive | 
COc1ccc(CNC(=O)CCCc2nnc3n(CCC(C)C)c(=O)c4sccc4n23)cc1 | active: 18.4 µM | 
O=C1Nc2ccccc2N=C(c2ccccc2)C1N(Cc1ccc(F)cc1)C(=O)c1cccnc1 (configuration not stated) | inconclusive [inhibitor, partial curve] | 
Cc1ccc(S(=O)(=O)Nc2cccc(-n3cnnn3)c2)cc1 | inactive | 
CCOC(=O)N1CCN(C(=O)c2ccc3c(=O)n(CCc4ccc(OC)c(OC)c4)c(=O)[nH]c3c2)CC1 | inconclusive [inhibitor, single point] | 
CCOC(=O)c1cc(OCC)c2c(ccc3cc(OC)ccc32)n1 | active: 5.8 µM | 
N#Cc1cc(-c2ccc(Cl)cc2)cn(Cc2c(Cl)cccc2Cl)c1=O | inconclusive [inhibitor, partial curve, poor fit] | 
CSCC[C@H](NC(=O)OC(C)(C)C)C(=O)N1CCC(C(=O)N[C@@H](C)C(=O)O)CC1 | inactive | 
CCCCNc1c(-c2ccc(-c3ccc(C(C)=O)cc3)c(OC)c2)nc2cnccn12 | inconclusive [inhibitor, single point] | 
O=C(Cc1c(F)cccc1Cl)OCC(=O)N1CCN(c2ccccc2)CC1 | inconclusive [inhibitor, single point] | 
O=C(/C=C/c1ccccc1)Nc1nnc(-c2ccco2)o1 | inconclusive [inhibitor, single point] | 
Clc1ccc(Cl)c(OCCCCN2CCNCC2)c1 | inconclusive [inhibitor, single point] | 
COc1ccc(CCNC(=O)c2ccc3c(c2)c(C)c(C)n3Cc2ccccc2)c(OC)c1OC | inconclusive [inhibitor, single point] | 
CC(C)Cc1nnc(NC(=O)CCS(=O)(=O)c2ccc(Cl)cc2)s1 | inconclusive [inhibitor, single point] | 
Cc1ccc(-c2cn(S(=O)(=O)c3ccc(C)cc3)nc2N)cc1 | inconclusive [inhibitor, single point] | 
CCc1nn(CCCC(=O)N2CCN(c3ccc(OC)cc3)CC2)c(=O)c2cc3occc3n12 | inconclusive [inhibitor, single point] | 
Cc1nc(NC(=O)/C=C/c2ccccc2)sc1C(=O)Nc1ccccc1Cl | inactive | 
NC(Cc1ccc(F)cc1)c1csc(Nc2ccc(C(F)(F)F)cn2)n1 (configuration not stated) | active: 9.2 µM | 
CN(Cc1ccon1)Cc1cn(C)nc1-c1ccc(Oc2ccccc2)cc1 | inconclusive [inhibitor, single point] | 
O=C(c1cc(C(F)(F)F)cc(C(F)(F)F)c1)N1CCC2(CC1)CCN(c1ncccn1)CC2 | inconclusive [inhibitor, single point] | 
FC(F)(F)c1nc(N2CCCC2)ncc1-c1nnnn1-c1ccccc1 | active: 23.1 µM | 
CCOc1ccc(Nc2ncnc3c2nc2n3CCCCC2)cc1 | active: 20.6 µM | 

Structure (SMILES) | Potency | activity change, negative = growth inhibition
O=C(c1cc(Br)c(Br)s1)N1CCN(c2ccccn2)CC1 | inconclusive [inhibitor, single point] | 
CC(NC(=O)/C(C#N)=C/c1cn(-c2ccccc2)nc1-c1ccc(F)cc1)c1ccccc1 (configuration not stated) | inconclusive [inhibitor, partial curve] | 
CCOc1ccc(CCNC(=O)C2CCN(c3ccc(N4CCOCC4)nn3)CC2)cc1OCC | inconclusive [inhibitor, partial curve] | 
COc1ccc(NC(=O)C2CCC(CNS(=O)(=O)c3ccc4c(c3)C(C)(C)C(=O)N4C)CC2)cc1 (configuration not stated) | inactive | 
CCCn1nc(C(=O)OCC(=O)Nc2cccc(S(N)(=O)=O)c2)c2ccccc2c1=O | inactive | 
CSCC[C@H](NC(=O)c1ccc(Cl)c(S(=O)(=O)N2CCCC2)c1)c1nc2ccccc2[nH]1 | inconclusive [inhibitor, single point] | 
Cc1cccc(NC(=S)N/N=C/c2ccc3c(c2)OCO3)c1 | inconclusive [inhibitor, single point] | 
CCOC(=O)c1c(NC(=O)c2cc(C)on2)c2cc([N+](=O)[O-])ccc2n1C | inactive | 
O=S(=O)(NC1CCSc2ccccc21)c1ccccc1 (configuration not stated) | inconclusive [inhibitor, single point] | 
COc1cc2cc(C(c3nnnn3C3CCCC3)N3CCc4ccccc43)c(=O)[nH]c2cc1OC (configuration not stated) | inconclusive [inhibitor, partial curve] | 
CCOC(=O)c1c(-c2ccccc2)csc1NC(=O)c1ccc(S(=O)(=O)N2CCOCC2)cc1 | active: 10.3 µM | 
CC(C)c1cc(=O)oc2c3c4c(cc12)CCCN4CCC3 | inconclusive [inhibitor, single point] | 
O=C(Nc1nnc(S(=O)(=O)N2CCCCCC2)s1)c1cccc(Br)c1 | active: 4.61 µM and active: 20.6 µM | 
O=C(NCc1ccc2c(c1)OCO2)C1CCN(c2ccc(S(=O)(=O)N3CCCC3)cc2)CC1 | inconclusive [inhibitor, partial curve, poor fit] | 
COc1cccc(-c2nnc(NC(=O)CCS(=O)(=O)c3ccc(F)cc3)o2)c1 | inconclusive [inhibitor, single point] | 
O=C(COc1ccc(-c2nnco2)cc1)N1CCN(S(=O)(=O)c2ccc3ccccc3c2)CC1 |  | inconclusive: -36% [inhibitor]
O=C(Nc1nccs1)c1ccc(NC(=O)c2ccco2)cc1 | inconclusive [inhibitor, single point] | 
COc1ccccc1N1CCN(c2ccc([N+](=O)[O-])cn2)CC1 | inconclusive [inhibitor, single point] | 
Cc1cc(CC(=O)O)c(C)n1-c1ccc(Cl)cc1 | inconclusive [inhibitor, partial curve] | 
O=C1C2C3C=CC(C3=C(c3ccccc3)c3ccccc3)C2C(=O)N1CCO (configuration not stated) | inconclusive [inhibitor, single point] | 
C=CCC1(CC=C)CCCN1C(=O)c1cc(COc2cccc(OC)c2)on1 | inconclusive [inhibitor, single point] | 

Source: PubChem BioAssay AID686978 (National Center for Advancing Translational Sciences (NCATS), 2013)
